Data taken from PubChem BioAssay AID1768 (National Center for Advancing Translational Sciences (NCATS), 2009).
Out of some 270,000 compounds screened, about 620 (0.23%) were called active. This list was built around the results that the source calls inconclusive (neither active nor inactive); the mix of calls is not that of the screen. The call rests on the fitted dose curve; in most records, active means well fitted inhibition curve with a large enough effect in the polarisation, with a control signal flat (not every such curve was filed as active); inconclusive means small, poorly fitted or top-dose-only effect, or effect the other way, or a change in a side signal; inactive means no such curve, though single readings can be large or run the other way; the % refers to the polarisation. Potencies of inconclusive entries are doubtful fits and often do not repeat. A note “side channel” means that the fit belongs to a control or component signal, not to the main read-out.

molecular target: Menin (Homo sapiens) (UniProt O00255); assay: qHTS Assay for Inhibitors Targeting the Menin-MLL Interaction in MLL Related Leukemias: Competition With Texas Red Labeled MLL-derived Mutant Peptide; conditions: fluorescence polarization; series mostly up to 61.6 µM
Sequence of UniProt O00255 (O00255 whole entry, looked up): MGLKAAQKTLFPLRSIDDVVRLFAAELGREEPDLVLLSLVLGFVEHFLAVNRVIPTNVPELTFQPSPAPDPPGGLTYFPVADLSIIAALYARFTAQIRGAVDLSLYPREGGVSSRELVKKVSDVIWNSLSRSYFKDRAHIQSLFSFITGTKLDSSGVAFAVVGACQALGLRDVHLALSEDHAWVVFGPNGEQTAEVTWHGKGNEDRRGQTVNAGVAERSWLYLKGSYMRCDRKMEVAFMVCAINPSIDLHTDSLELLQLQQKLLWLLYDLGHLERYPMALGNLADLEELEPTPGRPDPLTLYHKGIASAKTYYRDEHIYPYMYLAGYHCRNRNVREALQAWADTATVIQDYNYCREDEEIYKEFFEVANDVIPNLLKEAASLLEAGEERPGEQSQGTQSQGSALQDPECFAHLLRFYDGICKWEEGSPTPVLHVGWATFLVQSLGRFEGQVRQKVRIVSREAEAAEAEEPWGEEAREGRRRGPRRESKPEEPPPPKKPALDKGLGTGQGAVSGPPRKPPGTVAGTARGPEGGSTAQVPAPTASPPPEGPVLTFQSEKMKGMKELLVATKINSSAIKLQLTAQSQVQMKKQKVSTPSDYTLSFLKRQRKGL
Potency means the concentration at half of the fitted maximal effect; tags describe the fitted curve by direction and shape or compound fluorescence and quenching.

SMILES	Potency
Cc1cc(/C=C2\C(=O)NC(=O)N(c3ccccc3)C2=O)c(C)n1-c1ccc(C(=O)O)c(Cl)c1	inactive
COc1ccc(/C=C2/C(=O)NC(=O)N(C3CCCCC3)C2=O)cc1CSc1ccccn1	inconclusive: 39.8 µM [inhibitor, single point]
O=C1NC(=O)N(c2ccccc2)C(=O)/C1=C/c1ccoc1	inconclusive: 31.6 µM [fluorescent, side channel, single point]
COc1ccc(Cn2c(O)c(/C=N/NC(=O)c3ccccc3O)c(=O)[nH]c2=O)cc1	inconclusive: 20 µM [quencher, side channel, partial curve, poor fit]
O=c1c2ccccc2nc(CSc2ncnc3nc[nH]c23)n1-c1ccccc1	inactive
CN1CC(C(=O)c2ccc(Cl)cc2)C(c2ccccc2F)C1 (stereo not drawn)	inconclusive: 11.2 µM [fluorescent, side channel, partial curve]
Cc1cc(C)c(Cn2c(C(=O)O)c(C=O)c3ccccc32)c(C)c1	inconclusive: 17.8 µM [quencher, side channel, partial curve]
O=C(Nc1ccc(Cl)cc1)Nc1nccs1	inconclusive: 12.6 µM [quencher, side channel, partial curve]
CCCCOP(=O)(c1ccc(N(C)C)cc1)C(O)c1ccc(C(C)C)cc1 (stereo not drawn)	inconclusive: 6.31 µM [fluorescent, side channel, full curve]
O=C(CSc1nnc2c3c4c(sc3ncn12)CCCC4)NCc1ccco1	inconclusive: 39.8 µM [fluorescent, side channel, single point]
Cc1ccccc1-n1c(/C=C/c2ccccn2)nc2ccccc2c1=O	inconclusive: 14.1 µM [fluorescent, side channel, partial curve, poor fit]
CCC(C)N1C(=O)/C(=C/c2ccc3c(c2)CCN3CCCCl)C(=O)NC1=S (stereo not drawn)	inconclusive: 2.82 µM [quencher, side channel, full curve]
Cc1nn(Cc2ccccc2)c(Cl)c1C(=O)OCC(=O)Nc1cccc2ccccc12	inactive
C[N+]1(C)CCN(c2ccccc2)CC1	inconclusive: 25.1 µM [inhibitor, single point]
CCC1CN2CCc3cc(OC)c(OC)cc3C2CC1CC1NCCc2cc(OC)c(OC)cc21 (stereo not drawn)	inactive
COc1ccc(N=Nc2c(O)[nH]c(=S)[nH]c2=O)cc1	inconclusive: 14.1 µM [quencher, side channel, partial curve]
COc1ccc(CCN2CCCC(CN(C)C(=O)c3cc(C)oc3C)C2)cc1 (stereo not drawn)	inconclusive: 25.1 µM [fluorescent, side channel, partial curve]
Cc1ccc(-n2c(O)c(/C=N/N3CCCCC3c3cccnc3)c(=O)[nH]c2=S)cc1 (stereo not drawn)	inconclusive: 28.2 µM [fluorescent, side channel, single point]
O=C1NC(=O)N(c2ccccc2F)C(=O)/C1=C/c1ccc(Sc2nc3ccccc3[nH]2)o1	inconclusive: 17.8 µM [fluorescent, side channel, partial curve]
Cn1cccc1CN1CCN(C(=O)COc2ccccc2)CC1	inconclusive: 28.2 µM [inhibitor, single point]

SMILES	Potency
CCCCCC1CC(CC(=O)NC(=S)Nc2ccc([N+](=O)[O-])cc2)C(=O)O1 (stereo not drawn)	inconclusive: 6.31 µM [quencher, side channel, partial curve]
CCC(=NCc1ccco1)c1c(O)n(-c2ccc(OC)cc2)c(=O)[nH]c1=O	inconclusive: 44.7 µM [inhibitor, partial curve, poor fit]
CCOC(=O)c1ccc(NC(c2ccc(N(C)C)cc2)P(=O)(OC(C)C)OC(C)C)cc1 (stereo not drawn)	inconclusive: 3.16 µM [inhibitor, partial curve]
CCOc1ccc(N(CC)S(=O)(=O)c2ccc3c(c2)oc(=O)n3C)cc1	inconclusive: 8.91 µM [inhibitor, partial curve]
O=C(c1cn(Cc2ccccc2)c2ccccc12)N1CCCCC1	inconclusive: 3.55 µM [fluorescent, side channel, partial curve]
CC(=O)C1CCC2C3CCC4CC(C)(O)CCC4(C)C3CCC12C (stereo not drawn)	inconclusive: 2.51 µM [fluorescent, side channel, full curve]
O=c1c2ccccc2nc(CNCC2CCCO2)n1-c1ccc(F)cc1 (stereo not drawn)	inconclusive: 12.6 µM [inhibitor, partial curve, poor fit]
O=C(Oc1ccc2ccc(OC(=O)N3CCCCCC3)cc2c1)N1CCCCCC1	inconclusive: 1.78 µM [fluorescent, side channel, partial curve, poor fit]
Cc1ccc(N2C(=O)NC(=O)/C(=C\c3cc(C)n(-c4cc(C(=O)O)cc(C(=O)O)c4)c3C)C2=O)cc1	inactive
O=C(C[n+]1ccn(CCCNP2(=O)C=C(c3ccccc3)OC(c3ccccc3)=C2)c1)c1ccccc1	inconclusive: 10 µM [fluorescent, side channel, partial curve]
O=C(c1ccc2c3c(cccc13)CC2)C1CCCN(CC2CC2)C1 (stereo not drawn)	inconclusive: 10 µM [fluorescent, side channel, partial curve]
Cc1ccccc1NC(=O)NCCN1CC1	inconclusive: 39.8 µM [quencher, side channel, single point]
CN(C)C(=O)Oc1ccc2c(c1)O/C(=C\c1cccc(Cl)c1)C2=O	inconclusive: 8.91 µM [inhibitor, full curve]
O=C(O)CCn1cc(C=C2C(=O)NC(=S)NC2=O)c(-c2ccccc2)n1	inactive
COc1ccc(C(=O)CN2CCOCC2)cc1F	inconclusive: 3.16 µM [quencher, side channel, partial curve]
CC(=Nc1c(C)n(C)n(-c2ccccc2)c1=O)c1c(O)n(Cc2ccccc2)c(=O)[nH]c1=O	inconclusive: 6.31 µM [inhibitor, partial curve, poor fit]
N#Cc1cc2c(nc1SCC(=O)Nc1cc(Cl)ccc1Cl)C1CCN2CC1	inactive
CC1CC2CCC(O2)C(C)C(=O)OC(C)CC2CCC(O2)C(C)C(=O)OC(C)CC2CCC(O2)C(C)C(=O)OC(C)CC2CCC(O2)C(C)C(=O)O1 (stereo not drawn)	inconclusive: 3.16 µM [inhibitor, partial curve]
CC/C(=N\N1CCCCCC1)c1c(O)n(-c2ccccc2C)c(=O)[nH]c1=O	inconclusive: 8.91 µM [fluorescent, side channel, partial curve]
O=C1NC(=O)C(=Cc2cccc(OCCOc3ccccc3)c2)C(=O)N1	inconclusive: 10 µM [quencher, side channel, partial curve]

SMILES	Potency
O=C(c1ccccc1)C(CN1CCCC1)c1ccccc1 (stereo not drawn)	inactive
O=C1CN=C(c2ccc(Br)cc2)c2c(sc3c2CCCC3)N1CCN1CCCCC1	inconclusive: 1.78 µM [fluorescent, side channel, full curve, poor fit]
Cc1oc(-c2ccccc2)nc1CN1C(=O)CN=C(c2ccccc2)c2ccccc21	inconclusive: 8.91 µM [fluorescent, side channel, partial curve]
C=CCn1c(O)c(C(C)=Nc2ccc(N(C)C)cc2)c(=O)[nH]c1=O	inconclusive: 28.2 µM [inhibitor, single point]
Cn1c(O)c(C=Nc2ccccc2)c(=O)n(C)c1=O	inactive
O=C(O)Cn1cc(/C=C2\C(=O)NC(=O)N(c3ccc(Br)cc3)C2=O)c2ccccc21	inconclusive: 31.6 µM [quencher, side channel, single point]
CCCOc1ccc2[nH]cc(C3=CCNCC3)c2n1	inactive
Clc1ccc([C@@H](OCCN2CCCCC2)c2ccccc2)cc1	inactive
O=C(N/N=C/c1c(O)n(CCC2=CCCCC2)c(=S)[nH]c1=O)c1ccccc1	inconclusive: 12.6 µM [quencher, side channel, partial curve]
N#Cc1c(Oc2cccc(OS(=O)(=O)CCCC(F)(F)F)c2)cccc1C(F)(F)F	inconclusive: 0.708 µM [quencher, side channel, full curve, poor fit]
CCCc1nc2ccc(Br)cc2c(=O)n1-c1ccc([N+](=O)[O-])c(C(F)(F)F)c1	inconclusive: 39.8 µM [quencher, side channel, single point]
CN1/C(=C\C=C2C(=O)NC(=S)NC2=O)C(C)(C)c2ccccc21	inconclusive: 35.5 µM [fluorescent, side channel, single point]
CC(COc1ccccc1)N(CCCl)Cc1ccccc1 (stereo not drawn)	inconclusive: 15.8 µM [fluorescent, side channel, partial curve]
Oc1ccc(/C=N/NP(=S)(c2ccccc2)c2ccccc2)cc1O	inconclusive: 22.4 µM [quencher, side channel, partial curve]
COc1ccc(CNCCc2ccc3c(c2)OCO3)cc1Br	inconclusive: 20 µM [inhibitor, partial curve, poor fit]
COc1ccccc1CCNC1CCC(C(C)(C)C)CC1 (stereo not drawn)	inconclusive: 4.47 µM [inhibitor, single point]
O=c1[nH]c(O)c(/C=C2\C=Nc3ccc(OCc4ccccc4)cc32)c(=O)[nH]1	inconclusive: 39.8 µM [inhibitor, single point]
CCN1/C(=C\C=C\C2=[N+](CC)c3ccccc3C2(C)C)C(C)(C)c2ccccc21	inconclusive: 1.12 µM [fluorescent, side channel, full curve]
